The list shows a part of the results. Sequences were assembled here from the parent chain. Values near 0.05 are background.
B1: TEV protease; numbered along this chain (parent)
chain: MGESLFKGPRDYNPISSSICHLTNESDGHTTSLYGIGFGPFIITNKHLFRRNNGTLVVQSLHGVFKVKDTTTLQQHLVDGRDMIIIRMPKDFPPFPQKLKFREPQREERICLVTTNFQTKSMSSMVSDTSCTFPSGDGIFWKHWIQTKDGQCGSPLVSTRDGFIVGIHSASNFTNTNNYFTSVPKNFMELLTNQEAQQWVSGWRLNADSVLWGGHKVFMVKPEEPFQPVKEATQL

Variants of: B1
Experiment: raw area under fraction-flipped curve 0-4 h after induction (AUC4h, not background-subtracted), DNA-recorder readout of cleavage of the substrate (dimensionless); higher = more cleavage of the substrate by the protease variant
Details: temperature: 34 °C; time window: 0-4 h after rhamnose induction
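Further: Bxb1 expression induced with 0.2% (w/v) L-rhamnose at OD600 near 0.5, cultures sampled hourly, flipped fraction per protease–substrate barcode pair counted by paired-end Illumina sequencing.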

Variant | area with substrate ENLYFQL | area with substrate ENLYFQM | area with substrate ENLYFQN | area with substrate ENLYFQR | area with substrate ENLYFQS | area with substrate ENLYFQT | area with substrate ENLYFQW | area with substrate ENLYFQP | area with substrate ENLYFQQ | area with substrate ENLYFQY
Q198H | 0.0551 | 0.063 | 0.073 | 0.059 | 0.109 | 0.0706 | 0.0816 | – | – | –
N116H | 0.0682 | – | 0.0803 | 0.0545 | 0.103 | – | – | 0.0664 | 0.0851 | –
G8Y | – | – | 0.0693 | – | 0.0841 | – | 0.0587 | – | – | 0.0637
L211A | – | – | – | – | 0.116 | 0.0553 | 0.0146 | 0.0524 | 0.0732 | –
D91R | – | – | – | – | 0.103 | – | – | – | 0.0879 | 0.109
